# Test results: paper PMC4336329 (PLoS ONE, 2015)
# In all, about 310,000 compounds went through this assay and about 2,200 (0.71%) showed an effect of 50% or more. The effect is printed as a negative number. Some of the results follow.
# Target: human ether-à-go-go-related gene (hERG) potassium channel (human, UniProt Q12809)
# Assay: primary screen, population patch clamp on CHO cells stably expressing hERG
# Chain of human ether-à-go-go-related gene (hERG) potassium channel (Q12809 whole entry, looked up): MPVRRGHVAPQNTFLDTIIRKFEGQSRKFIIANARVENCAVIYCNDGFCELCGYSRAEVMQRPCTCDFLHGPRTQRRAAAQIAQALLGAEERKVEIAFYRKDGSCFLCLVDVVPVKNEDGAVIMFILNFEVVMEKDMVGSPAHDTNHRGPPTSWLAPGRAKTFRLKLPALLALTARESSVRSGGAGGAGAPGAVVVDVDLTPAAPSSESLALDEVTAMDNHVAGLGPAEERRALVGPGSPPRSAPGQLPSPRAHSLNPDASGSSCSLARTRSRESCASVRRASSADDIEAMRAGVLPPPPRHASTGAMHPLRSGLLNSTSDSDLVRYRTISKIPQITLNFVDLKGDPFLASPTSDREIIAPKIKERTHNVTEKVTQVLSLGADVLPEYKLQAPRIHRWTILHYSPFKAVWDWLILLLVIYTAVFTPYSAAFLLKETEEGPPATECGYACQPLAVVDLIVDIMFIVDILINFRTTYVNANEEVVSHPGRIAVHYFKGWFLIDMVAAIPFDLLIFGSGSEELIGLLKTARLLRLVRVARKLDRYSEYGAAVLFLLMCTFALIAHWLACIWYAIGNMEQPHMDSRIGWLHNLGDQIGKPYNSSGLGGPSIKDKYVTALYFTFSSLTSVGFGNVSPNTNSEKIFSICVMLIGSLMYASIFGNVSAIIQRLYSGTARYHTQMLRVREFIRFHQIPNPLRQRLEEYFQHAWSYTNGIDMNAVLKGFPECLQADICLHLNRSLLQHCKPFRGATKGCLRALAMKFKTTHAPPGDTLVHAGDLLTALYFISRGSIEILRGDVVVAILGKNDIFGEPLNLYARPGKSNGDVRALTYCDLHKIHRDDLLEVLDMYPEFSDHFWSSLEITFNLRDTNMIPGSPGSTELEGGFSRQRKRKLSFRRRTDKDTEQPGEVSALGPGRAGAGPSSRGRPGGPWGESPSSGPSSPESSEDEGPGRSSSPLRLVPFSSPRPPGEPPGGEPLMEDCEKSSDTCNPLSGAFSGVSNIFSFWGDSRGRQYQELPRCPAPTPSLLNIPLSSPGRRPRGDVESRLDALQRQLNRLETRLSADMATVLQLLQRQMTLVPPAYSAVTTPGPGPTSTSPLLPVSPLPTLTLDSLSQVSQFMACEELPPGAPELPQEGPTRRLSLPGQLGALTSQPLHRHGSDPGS
row,SMILES,"hERG current change (%, negative = inhibition) at 1uM [%]"
1,CCCCCCc1cc2cc(C(=O)OCC)c(=O)oc2cc1O,13.7
2,CC(C)(C)NC(=O)C1c2ccccc2Oc2ccccc21,14
3,CCCCCCN1N=C(C)C(C(=O)c2ccc(Cl)cc2)C1=O (stereo not drawn),13.3
4,Cc1ccc(S(=O)(=O)c2cc(C#N)c(=O)[nH]c2N)cc1,18
5,CCc1ccc(C(=O)CN2C(=O)NC3(CCOc4ccccc43)C2=O)s1 (stereo not drawn),5.13
6,Nc1ccc(S(=O)(=O)Nc2nc(-c3ccccc3)cc(-c3ccccc3)n2)cc1,17.6
7,COc1ccc(N2CCN(C(=O)c3ccc(C(C)(C)C)cc3)CC2)cc1,9.86
8,C[C@@H](C(=O)Nc1ccc2c(c1)OCCO2)n1c(=O)[nH]c2ccccc2c1=O,18.8
9,N#Cc1ccccc1S(=O)(=O)N1CCN(c2cnccn2)CC1,-0.756
10,O=C(NCCN1CCOCC1)C1CCC(CNS(=O)(=O)c2ccccc2)CC1 (stereo not drawn),6.14
11,COC(=O)N1C/C=C\C(c2ccc(OC)cc2)N(Cc2ccc(F)cc2)C(=O)C1 (stereo not drawn),12.3
12,CCOC(=O)Cn1nc(C)c(NC(=O)c2ccc(Cl)c([N+](=O)[O-])c2)c1C,6.95
13,CCOc1ccccc1-n1c(=S)sc2c(=O)n(-c3ccc(F)cc3)c(SCC(=O)O)nc21,14.3
14,CC(C)(C)Nc1nc(Nc2ccc([N+](=O)[O-])cc2)nc(NC(C)(C)C)n1,17.5
15,C=CCNc1nc(C(=O)OCC(=O)Nc2cc(S(C)(=O)=O)ccc2Cl)cs1,4.15
16,COc1cccc(CN2C(=O)C(C)N(C(=O)c3c(F)cccc3F)c3ccccc32)c1 (stereo not drawn),13.1
17,Cc1cccc(NC(=S)NCC2CCCO2)c1 (stereo not drawn),3.07
18,COc1ccc(C2CC(c3ccccc3)Nc3ncnn32)cc1 (stereo not drawn),-8.28
19,Nc1nnc(SCC(=O)Nc2ccc3c(c2)OCCO3)s1,0.499
20,CC(C(=O)NCC1CCCO1)N(C(=O)c1snc(C(N)=O)c1N)c1ccccc1 (stereo not drawn),3.21
21,Cc1ccc(NC(=O)CN2CCN(C)CC2)cc1S(=O)(=O)N1CCOCC1,-36
22,C=CCc1ccc(OCCOc2cccc3cccnc23)c(OC)c1,10.2
23,O=c1c2c3c(sc2ncn1-n1cccc1)CCCCC3,6.27
24,Cc1ncc([N+](=O)[O-])n1CC(=O)N/N=C/c1ccccc1F,-13.3
